Measurements reported in PMC4336329 (PLoS ONE, 2015).
About 2,200 (0.71%) of roughly 310,000 compounds showed an effect of 50% or more. Effects have a minus sign here. Some of the results follow.

biological target: human ether-à-go-go-related gene (hERG) potassium channel (human, UniProt Q12809); test: primary screen, population patch clamp on CHO cells stably expressing hERG
Sequence (Q12809 whole entry, looked up): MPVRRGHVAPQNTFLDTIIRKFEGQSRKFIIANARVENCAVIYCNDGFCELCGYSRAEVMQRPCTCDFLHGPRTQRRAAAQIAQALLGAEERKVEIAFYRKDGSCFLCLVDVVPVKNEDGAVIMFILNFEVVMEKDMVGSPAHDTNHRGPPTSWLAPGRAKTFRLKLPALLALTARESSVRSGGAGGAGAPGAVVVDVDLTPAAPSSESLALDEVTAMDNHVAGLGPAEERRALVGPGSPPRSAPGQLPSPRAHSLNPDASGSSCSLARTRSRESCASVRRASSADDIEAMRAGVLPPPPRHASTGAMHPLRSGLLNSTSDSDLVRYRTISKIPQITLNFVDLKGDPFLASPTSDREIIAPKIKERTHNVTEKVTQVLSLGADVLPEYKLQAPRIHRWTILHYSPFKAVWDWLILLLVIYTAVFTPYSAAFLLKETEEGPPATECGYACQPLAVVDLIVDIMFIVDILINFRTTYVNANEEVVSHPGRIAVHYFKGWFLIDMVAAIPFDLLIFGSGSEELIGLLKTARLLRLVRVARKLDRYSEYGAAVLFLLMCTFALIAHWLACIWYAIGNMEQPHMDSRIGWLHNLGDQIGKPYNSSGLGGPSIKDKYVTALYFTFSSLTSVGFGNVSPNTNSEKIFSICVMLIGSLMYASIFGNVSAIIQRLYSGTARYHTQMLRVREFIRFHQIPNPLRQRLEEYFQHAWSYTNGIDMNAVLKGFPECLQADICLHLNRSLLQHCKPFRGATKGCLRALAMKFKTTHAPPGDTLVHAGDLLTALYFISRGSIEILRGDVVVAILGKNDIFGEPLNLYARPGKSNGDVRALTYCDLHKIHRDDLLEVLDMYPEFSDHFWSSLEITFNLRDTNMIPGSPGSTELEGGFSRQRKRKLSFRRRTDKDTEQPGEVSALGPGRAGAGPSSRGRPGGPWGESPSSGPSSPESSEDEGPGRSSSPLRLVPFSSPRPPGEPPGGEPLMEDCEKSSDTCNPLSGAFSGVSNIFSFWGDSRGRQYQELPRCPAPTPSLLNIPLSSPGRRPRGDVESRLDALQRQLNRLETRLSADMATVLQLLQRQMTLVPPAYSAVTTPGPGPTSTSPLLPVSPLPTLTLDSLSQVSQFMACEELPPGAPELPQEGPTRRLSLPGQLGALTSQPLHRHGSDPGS

SMILES	hERG current change (%, negative = inhibition) at 1uM
COCc1cc(C)n(CC(=O)OC)c(=O)c1C#N	12.5%
COc1cccc(N2CCN(C(=O)CN3C(=O)NC4(CCCC4)C3=O)CC2)c1	9.11%
Cc1ccc(NC(=O)CN(C)CC(=O)N(CC(C)C)c2c(N)n(CC(C)C)c(=O)[nH]c2=O)c(C)c1	6.99%
Cc1csc2ncc(C(=O)Nc3ccccc3F)c(=O)n12	5.28%
Cc1[nH]n(C(N)=S)c(=O)c1N=Nc1ccc(Br)cc1	16.2%
COc1cccc(C(C(=O)NC2CCCCC2)N(C(=O)c2ccco2)c2ccc(-n3cnnn3)c(C)c2)c1 (centres unmarked)	11.5%
CCN(CC)CCCNC(=S)N(CCO)Cc1cc2cc3c(cc2[nH]c1=O)OCO3	6.5%
CCc1ccc(Oc2cc(Cl)nc(N)n2)cc1	16.8%
CC(=O)Nc1ccccc1NC(=O)C(F)(F)F	12.9%
Cc1c(-n2cc(C(=O)O)c(=O)c3cc(F)c(N4CCCC4)c(F)c32)c(=O)n(-c2ccccc2)n1C	10.4%
CCN(CC)S(=O)(=O)c1cccc(C(=O)Nc2nnc(C)s2)c1	7.96%
NC(=S)N/N=C/c1coc2ccccc2c1=O	14.1%
Cc1cc(N2CCN(S(=O)(=O)c3ccccc3)CC2)nc2c(C)cccc12	17%
Cc1cc(C(=O)N/N=C2\CCCc3ccccc32)c(C)o1	13.2%
COc1cnc(N(C)C)nc1Sc1ccc(Cl)cc1	11.1%
O=C(COC(=O)c1ccc(NS(=O)(=O)c2cccs2)cc1O)Nc1nc2ccccc2s1	10.5%
CC(C)C(NC(=O)c1ccccc1)C(=O)NC1=NCCS1 (centres unmarked)	11.4%
COc1cccc(-c2[nH]nc3c2C(c2ccsc2)C(C#N)=C(N)O3)c1 (centres unmarked)	3.18%
Cc1cc(C)nc(-n2nc(C)c(C3(O)C(=O)Nc4ccc(F)cc43)c2N)n1 (centres unmarked)	8.77%
Cc1ccc(C)c(S(=O)(=O)Nc2cccc(-n3cnnn3)c2)c1	10.9%
O=C(N/N=C/c1cc2ccccc2[nH]1)c1ccccc1Cl	10.6%
CN(C)S(=O)(=O)c1ccc(C(=O)Nc2ccccc2[N+](=O)[O-])cc1	5.27%
Cc1noc(C)c1COC(=O)c1cccc(N(C)C)c1	11.6%

SMILES	hERG current change (%, negative = inhibition) at 1uM
CN(CC(=O)Nc1cccc(F)c1)C(=O)CCCn1c(=O)oc2ccccc21	-21.7%
COc1ccc(/C=C/C(=O)NC(=S)NNC(=O)c2cnccn2)cc1	18.8%
CCCn1nc2cc(C(=O)NCCCCc3ccccc3)ccc2c1OCC	7.48%
COC(=O)CCCNC(=O)OCc1ccc([N+](=O)[O-])cc1	-3.88%
COc1ccc(CC(=O)NNC(=S)Nc2ccc(Br)cc2)cc1	4.75%
COC(=O)N/N=C(\C)c1ccc(Br)cc1	8.75%
CC1(C)CC(=O)C=C(NC2=CC3OC(c4ccccc4)OCC3OC2=O)C1 (centres unmarked)	13.4%
COc1ccc(C(=O)CCN2CCN(c3ccccc3F)CC2)cc1.Cl	-39.4%
CC(=O)N1c2ccc(S(=O)(=O)N3CCC(C(=O)NCc4ccc(F)cc4)CC3)cc2CC1C (centres unmarked)	11.2%
CS(=O)(=O)NNC(=O)Cn1nnc(-c2ccc(OCc3ccccc3Cl)cc2)n1	15.3%
CCN(CCCNC(=O)C1CCN(S(=O)(=O)c2cnc[nH]2)CC1)c1ccccc1	14.4%
COc1cc2c(cc1OC)CN(S(=O)(=O)c1cccc(F)c1)CC2	16.9%
Cc1[nH]c(=O)[nH]c(=O)c1N1CCOCC1	9.51%
O=C(Nc1cnccn1)c1csc2ccccc12	11.2%
Cc1ccc(C2C(=O)N(C3CCCC3)CC(=O)N2C2CCCCC2)cc1 (centres unmarked)	-12.9%
CCCCNC(=O)CCSc1nc2nc(C)cc(C)n2n1	6.29%
Cc1cc(NC(=O)CSc2nnc(Nc3ccccc3F)s2)no1	11.2%
O=C(CSc1nnc(CNC(=O)c2ccccc2)o1)c1ccc(Cl)cc1	1.46%
Cc1cnc(C(=O)NC2CCSc3ccccc32)cn1 (centres unmarked)	19%
CCOc1ccc(NC(=O)CC2Nc3ccccc3NC2=O)cc1 (centres unmarked)	9.45%
COc1c(C)cc(C(=O)C2CCCN(C(=O)CCCn3cncn3)C2)cc1C (centres unmarked)	6.5%
O=C(CN1CCN(Cc2ccc(Cl)cc2)CC1)N/N=C/c1cccs1	-30.9%
Cc1sc2ncnc(N=Nc3c(O)[nH]c4ccccc34)c2c1C	20.7%

SMILES	hERG current change (%, negative = inhibition) at 1uM
Cc1nn(C)c(Cl)c1CN1CCCC(C(=O)Nc2ccc(-c3cscn3)cc2)C1 (centres unmarked)	6.3%
Cc1c(CCO)c(=O)[nH]n1C(=O)c1ccc(F)cc1	13.9%
CCC(C(=O)N1CCC2(CC1)OCCO2)c1ccccc1 (centres unmarked)	3.25%
CCN(CC)c1nc(N)c([N+](=O)[O-])c(NCCO)n1	16.2%
Cc1cccc(NC(=O)CCS(=O)(=O)c2ccccc2)c1	14.4%
Cc1ccc(C)c(NC2=NC3(CCCCC3)N=C(N)N2)c1	12.7%
Cc1cc(C(C)(C)C)oc1C(=O)N(CC(=O)NC1CCCC1)c1c(C)cccc1C	6.39%
Cc1cnc(C(=O)Nc2ccc(OC(F)(F)F)cc2)cn1	5.57%
CC(C)(C)NC(=O)COC(=O)c1ccccc1OCC(=O)Nc1ccc(Br)cc1	16.1%
O=C(Cc1noc2ccccc12)NNC(=S)Nc1ccccc1	12.5%
Cc1ccc(Sc2ncccc2C(=O)NCC(c2ccc(F)cc2)N2CCOCC2)cc1C (centres unmarked)	4.61%
O=C(c1ccco1)N1C(=O)c2cccc3c(S(=O)(=O)N4CCCC4)ccc1c23	6.3%
CCCN(CCC)CCCNC(=O)CC(C(=O)N1CCc2ccccc21)n1ccnc1 (centres unmarked)	-0.353%
c1ccc(C2[C@H]3CN(Cc4cccnc4)[C@H](c4ccccc4)C34CC2(c2cccnc2)C4)cc1 (some centres unmarked)	6.83%
CSc1ccccc1C(=O)NCCSC(C)(C)C	6.9%
COc1ccc(/C=C2\Oc3cc(OCC(N)=O)ccc3C2=O)cc1OC	12.5%
CC(=O)c1c(C)[nH]c(C(=O)N(C)CC(=O)Nc2ccc(Cl)c(C(F)(F)F)c2)c1C	10.8%
CCC(=O)Nc1c(S(=O)(=O)c2ccccc2)c2nc3ccccc3nc2n1Cc1ccccc1	5.26%
CCCN1C(=O)c2cc(C(=O)NC3CCCC3)ccc2C1O (centres unmarked)	2.09%
Cc1c(NC(=O)c2ccccc2NC(=O)c2ccccc2)cccc1C(=O)O	14.6%
COc1ccc(-n2nnc3c(=O)n(CC(=O)N4CCCCC4)cnc32)cc1	11.1%
Cc1nc(-c2cccc(NC(=O)c3cc4cc(Br)ccc4oc3=O)c2)cs1	2.79%
O=C(C(c1ccccc1)c1ccccc1)N1CCN(Cc2ccncc2)CC1	-7.91%

SMILES	hERG current change (%, negative = inhibition) at 1uM
CCCOn1c(OCC(C)C)nc2ccccc2c1=O	12.5%
CC1=Nc2ccccc2/C1=C\c1sc(Nc2ccc(C)cc2)nc1O	-2.35%
Cc1cccc(OCC(=O)N(C)CCc2ccccn2)c1	8.5%
O=C(c1cccc(S(=O)(=O)N2CCOCC2)c1)N(Cc1nnc(-c2ccccc2Cl)o1)C1CC1	9.18%
CCOc1ccc(NS(=O)(=O)c2ccc(NC(=O)c3ccccn3)cc2)cc1	15.2%
NS(=O)(=O)c1ccc(CCNC(=O)CCc2nc3ccccc3s2)cc1	15.9%
Cc1ccc(NC(=O)C2C3CCCC2C3c2ccccc2)cc1C (centres unmarked)	3.15%
O=C1C2C3C=CC(C3)C2C(=O)N1c1ncn[nH]1 (centres unmarked)	10.6%
FC(F)(F)c1nc2ccccc2n2c(-c3ccc(Cl)cc3)nnc12	4.99%
Cc1nnc(NC(=O)CSc2ncc(-c3ccccc3)[nH]2)s1	9.66%
CCc1cc(C(=O)N2CCCC(CO)(Cc3ccc(F)cc3)C2)n(C)n1 (centres unmarked)	5.89%
CC(=O)c1[nH]c(C)c(C(=O)N2CCCC(Nc3cccc(F)c3)C2)c1C (centres unmarked)	18.1%
Cc1ccc(S(=O)(=O)N2CCN(CCNC(=O)C(=O)Nc3ccc(F)cc3)CC2)cc1	9.47%
O=C(CSc1n[nH]c(=O)[nH]c1=O)NC1CCCCC1	17.2%
CCCCn1c(N)c(N(CCOC)C(=O)c2cc(-c3ccc(F)cc3)nc3ccccc23)c(=O)[nH]c1=O	12.7%
CC(C)c1nc2cc(C(=O)N3CCNC(=O)C3c3cccc(F)c3)ccc2o1 (centres unmarked)	18%
Cc1ccc(S(=O)(=O)N2CCN(C(=O)CSc3nnc(-c4ccco4)o3)CC2)cc1	13.1%
COc1cc(C(=O)c2ccccc2Cl)c([N+](=O)[O-])cc1OC	-2.27%
CC(NC(=O)CSc1nc2ccccc2c(=O)n1CCCO)c1ccccc1 (centres unmarked)	-0.931%
CC(=O)C1=C(O)CCC1=N	2.44%
